This is one part of the list.

Here are results for 31 compounds from the antibiotic and cytotoxicity screens of Wong et al. (2023).

This assay deals with HepG2. As to the kind of experiment: cytotoxicity call (relative viability < 0.9). Conditions: 10 µM.
`C[C@@H]1CN([C@H](C)CO)C(=O)c2c(c3ccccc3n2C)-c2ccccc2CO[C@@H]1CN(C)S(=O)(=O)c1ccc(Cl)cc1`: the cytotoxicity call was “inactive”.

In the case of `NCC1OC(OC2C(CO)OC(OC3C(O)C(N)CC(N)C3OC3OC(CO)C(O)C(O)C3N)C2O)C(N)C(O)C1O.O=S(=O)(O)O` (stereo unspecified), the cytotoxicity call is “inactive”.

Consider `CNc1ncnc2c1ncn2[C@@H]1O[C@H](CO)[C@@H](O)[C@H]1O`, for which the cytotoxicity call is “inactive”.

For the compound `CCOC[C@@H](O)CN`, the cytotoxicity call is “inactive”.

As for `COc1ccc(C#Cc2ccc3c(c2)[C@]2(C(=O)N3)[C@H](C(=O)N3CCN(c4ncccn4)CC3)[C@H]3C(=O)O[C@H](c4ccccc4)[C@H](c4ccccc4)N3[C@@H]2c2ccc(O)cc2)cc1`, the cytotoxicity call is “inactive”.

With `Cc1noc(C)c1NC(=O)Nc1ccc2c(c1)C(=O)N([C@@H](C)CO)C[C@H](C)[C@H](CN(C)S(=O)(=O)c1ccc(Cl)cc1)OCCCC[C@@H](C)O2`, the cytotoxicity call is “inactive”.

For `Cc1noc(C)c1NC(=O)Nc1cccc2c1O[C@@H](CN(C)Cc1ccc(Oc3ccccc3)cc1)[C@H](C)CN([C@H](C)CO)C2=O`, the cytotoxicity call was “inactive”.

For the compound `C[C@@H]1CN([C@H](C)CO)C(=O)Cc2cc(NC(=O)Cc3ccccc3)ccc2O[C@@H]1CN(C)C(=O)Nc1cccc2ccccc12`, the cytotoxicity call was “inactive”.

For the compound `Cc1noc(C)c1S(=O)(=O)Nc1ccc2c(c1)CC(=O)N([C@@H](C)CO)C[C@@H](C)[C@@H](CN(C)S(=O)(=O)c1cccs1)O2`, the cytotoxicity call is “inactive”.

With `O=C1C(=CNC(CO)(CO)CO)C(=O)c2ccccc21`, the cytotoxicity call is “inactive”.

For the compound `C[C@@H]1CN([C@H](C)CO)C(=O)Cc2cc(NC(=O)Nc3cccc4ccccc34)ccc2O[C@@H]1CN(C)C(=O)Nc1ccc(F)cc1`, the cytotoxicity call was “inactive”.

Consider `Cc1noc(C)c1NC(=O)Nc1ccc2c(c1)C(=O)N([C@H](C)CO)C[C@@H](C)[C@@H](CN(C)C(=O)Nc1cccc3ccccc13)O2`, for which the cytotoxicity call is “inactive”.

In the case of `C[C@@H]1CN([C@H](C)CO)C(=O)Cc2cc(NS(=O)(=O)c3cccs3)ccc2O[C@H]1CN(C)S(=O)(=O)c1cccs1`, the cytotoxicity call is “inactive”.

For the compound `Cc1cn[nH]c1.Cl`, the cytotoxicity call was “inactive”.

`COc1ccc(C#Cc2cnc3c(c2)C(=O)N([C@H](C)CO)C[C@H](C)[C@H](CN(C)S(=O)(=O)c2ccc(F)cc2)O3)cc1OC`: the cytotoxicity call is “inactive”.

For the compound `Cc1cc(C(=O)Nc2cccc3c2O[C@H](CN(C)S(=O)(=O)c2c(C)noc2C)[C@H](C)CN([C@H](C)CO)C3=O)n(C)n1`, the cytotoxicity call is “inactive”.

For `C[C@@H]1CCCCO[C@@H](CN(C)C(=O)NC2CCCCC2)[C@@H](C)CN([C@H](C)CO)C(=O)c2cc(NC(=O)Cc3ccccc3)ccc2O1`, the cytotoxicity call was “inactive”.

On to `CC[n+]1oc(-c2ccccc2)cc1C`, for which the cytotoxicity call was “active”.

With `COc1ccccc1-c1ccc2c(c1)O[C@H](CN(C)C(=O)c1cccnc1)[C@@H](C)CN([C@H](C)CO)S2(=O)=O`, the cytotoxicity call was “inactive”.

With `Cc1ccc(S(=O)(=O)Nc2cccc3c2O[C@H](CN(C)S(C)(=O)=O)[C@H](C)CN([C@H](C)CO)C3=O)cc1`, the cytotoxicity call was “inactive”.

Turning to `CC(=N)NCCCC[C@H](N)C(=O)O`, the cytotoxicity call is “inactive”.

`O=C(/C=C/c1ccc(O)c(O)c1)O[C@]1(C(=O)O)C[C@@H](O)[C@H](O)[C@H](O)C1`: the cytotoxicity call was “inactive”.

Turning to `Cc1noc(C)c1NC(=O)Nc1ccc2c(c1)CC(=O)N([C@@H](C)CO)C[C@H](C)[C@H](CN(C)Cc1ccc(Cl)c(Cl)c1)O2`, the cytotoxicity call is “inactive”.

For the compound `C[C@@H]1CCCCO[C@H](CN(C)Cc2ccc(C(F)(F)F)cc2)[C@@H](C)CN([C@H](C)CO)C(=O)c2cc(NC(=O)CCCN(C)C)ccc2O1`, the cytotoxicity call is “inactive”.

`C[C@H]1CN([C@@H](C)CO)C(=O)c2cc(NC(=O)c3ccncc3)ccc2O[C@@H]1CN(C)S(=O)(=O)c1ccccc1`: the cytotoxicity call was “inactive”.

On to `Cn1cc(C(=O)N2CCN(CC(N)=O)CC2)c2nn(-c3ccccc3)c(=O)c-2c1`, for which the cytotoxicity call was “inactive”.

Take `C[C@@H]1CCCCO[C@@H](CN(C)C)[C@@H](C)CN([C@@H](C)CO)C(=O)c2cc(NS(=O)(=O)c3cn(C)cn3)ccc2O1`: the cytotoxicity call is “inactive”.

Consider `COc1ncnc2nc[nH]c12`, for which the cytotoxicity call was “inactive”.

Consider `Cc1noc(C)c1S(=O)(=O)N(C)C[C@@H]1OCCCC[C@@H](C)Oc2ccc(NC(=O)Nc3cccc4ccccc34)cc2C(=O)N([C@@H](C)CO)C[C@H]1C`, for which the cytotoxicity call was “inactive”.

As to `C[C@H](CO)N1C[C@H](C)[C@@H](CN(C)Cc2ccc(Oc3ccccc3)cc2)Oc2ccc(NS(=O)(=O)c3ccccc3)cc2CC1=O`, the cytotoxicity call was “inactive”.

With `COc1ccc(S(=O)(=O)Nc2ccc3c(c2)C(=O)N([C@H](C)CO)C[C@@H](C)[C@@H](CN(C)Cc2ccc(Cl)c(Cl)c2)OCCCC[C@H](C)O3)cc1`, the cytotoxicity call is “inactive”.
